Reference: the Deep4Chem optical property database

Experiment: solvent given as SMILES
Details: in CC(=O)N(C)C

CC(C)(C)c1cc(/C2=C3\C=CC(=N3)/C(c3ccc(Br)cc3)=c3/cc/c([nH]3)=C(\c3ccc(Br)cc3)C3=N/C(=C(/c4cc(C(C)(C)C)cc(C(C)(C)C)c4)c4cc2c[nH]4)C=C3)cc(C(C)(C)C)c1
absorption maximum: 702 nm
